Test results taken from PubChem BioAssay AID624171 (National Center for Advancing Translational Sciences (NCATS), 2012).
The whole screen tested about 410,000 compounds, of which about 1,200 (0.29%) were called active. This list was built around the results that the source calls inconclusive (neither active nor inactive); the mix of calls is not that of the screen. Calls follow the shape of the dose curve; as a rule, active = well fitted activation curve with a large enough effect; inconclusive = small, poorly fitted or top-dose-only effect; inactive = flat fitted curve, though single readings scatter. Potencies of inconclusive entries are doubtful fits and often do not repeat.

experiment: qHTS of Nrf2 Activators; conditions: AREc32 ARE-luciferase reporter (MCF7-derived line), luminescence, 24 h; activation: at 46.1 µM (top of the series); also: nearly all actives have a fitted effect of over 65% in size; as to activation: % of control where 0% means no effect
In short: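 AREc32 cells carrying an ARE-driven firefly luciferase, 1000 cells/well in OPTI-MEM with 5% FBS, dosed after overnight attachment and incubated 24 hr at 37 deg C. Steady-Glo luminescence read after 30 min at RT.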
Potency is read from the fitted curve at half-maximal effect; tags tell the direction and shape of the fitted curve.

| SMILES | Potency | activation |
| --- | --- | --- |
| COc1cccc(/C=C2/CCC(CN(C)C)C2=O)c1 (stereo not drawn) | inconclusive: 7.08 µM [activator, full curve, poor fit] | – |
| C=CCOc1ccc(Cl)cc1-c1noc(-c2csc([C@H]3C[C@H](O)[C@@H](CO)O3)n2)n1 | – | inactive: 7.18% |
| O=S(=O)(Nc1ccc(O)c(NS(=O)(=O)c2ccccc2)c1)c1ccccc1 | inconclusive: 35.5 µM [activator, partial curve, poor fit] | – |
| CCc1c(C)nc2nncn2c1NCc1ccccc1 | – | inactive: 0.566% |
| Cc1cccc(N2CCn3c2nc2c3c(=O)n(C/C=C/c3ccccc3)c(=O)n2C)c1 | – | inactive: 0.687% |
| N#Cc1c(-c2ccco2)cc(-c2ccccn2)nc1N | inconclusive: 1.78 µM [activator, full curve, poor fit] | – |
| CCOC(=O)C1=C(C2=CCCCC2)c2ccc(OC)cc2N(S(=O)(=O)C(F)(F)F)C1C(=O)OCC (stereo not drawn) | inconclusive: 22.4 µM [activator, single point] | – |
| Cc1cc2c(ccc3c2no[n+]3[O-])nn1 | inconclusive: 12.6 µM [activator, partial curve, poor fit] | – |
| C=CCN1C(=O)NC(c2ccccc2)(C(F)(F)F)S/C1=C(\C#N)c1nnc(N2CCOCC2)n1-c1ccccc1 (stereo not drawn) | inconclusive: 22.4 µM [activator, single point] | – |
| COc1ccc(-c2nc(N)n(C(=O)c3ccc(C)cc3)n2)cc1 | – | inactive: 0.296% |
| O=C(/C=C/c1c(F)cccc1Cl)N1CCc2ccccc2C1 | – | inactive: 1.99% [at 9.22 µM] |
| Fc1cccc(Cc2c(-c3ccco3)nc3c4ccccc4ccn23)c1 | active: 5.01 µM | – |
| CC(=O)OCc1c(C(F)(F)F)nn(C)c1Oc1cccc(C(F)(F)F)c1 | – | inactive: -0.215% |
| CCCOC(=O)c1ccc(-c2c(C)noc2-c2ccc(OC)cc2O)o1 | – | inactive: 3.14% |
| O=C(/C=C/c1ccccc1Cl)Nc1nc(-c2cccs2)ns1 | active: 6.31 µM | – |
| O=c1nc2ccccc2c2n1CC(CN1CCN(C(c3ccccc3)c3ccccc3)CC1)N2 (stereo not drawn) | – | inactive: 1.87% |
| Cc1ccc(Sc2c([N+](=O)[O-])c(C)nn2C)cc1 | inconclusive: 12.6 µM [activator, single point] | – |
| Cn1c(=O)n(C)c2cc(NS(=O)(=O)c3ccc(Cl)s3)ccc21 | inconclusive: 25.1 µM [activator, single point] | – |
| O=C(NCCc1ccccc1F)C1CC(=O)N(c2cccc(C(F)(F)F)c2)C1 (stereo not drawn) | – | inactive: -0.857% |
| CC(C)c1ccc(OCC(=O)NCC(c2ccc(Cl)cc2)N2CCOCC2)cc1 (stereo not drawn) | – | inactive: 4.89% |
| COc1ccc(N2C(N)=C(C#N)C(c3cc(CN4CCOCC4)cs3)C3=C2CCCC3=O)cc1 (stereo not drawn) | – | inactive: 4.14% |
| CS(=O)(=O)/C(C#N)=C/c1cccn1S(=O)(=O)c1ccc([N+](=O)[O-])cc1 | inconclusive: 25.1 µM [activator, single point] | – |
| NC(=O)c1ccsc1NC(=O)CSc1ncnc2sccc12 | inconclusive: 17.8 µM [activator, single point] | – |
| Cc1cccc(-c2nnc(SCC(=O)N3CCCCC3)o2)c1 | – | inactive: 4.6% |
| Nc1c(C(=O)c2ccccc2)sc2nsc(SCCN3CCCC3)c12 | inconclusive: 17.8 µM [activator, partial curve, poor fit] | – |

| SMILES | Potency | activation |
| --- | --- | --- |
| O=C(O)CCS(=O)(=O)c1nc(-c2cccs2)cc(C(F)(F)F)n1 | inconclusive: 31.6 µM [activator, single point] | – |
| Oc1ccccc1C1CC(c2cccs2)=NC(c2cccc(Br)c2)N1 (stereo not drawn) | inconclusive: 11.2 µM [activator, partial curve] | – |
| COc1ccc(OC)c(CNC(=O)CSc2c3c(nc4cc(Cl)ccc24)CCCC3)c1 | inconclusive: 12.6 µM [activator, partial curve] | – |
| O=C(NC(=S)Nc1c(Cl)ccc2nsnc12)c1ccco1 | inconclusive: 7.94 µM [activator, partial curve] | – |
| Cc1ccc(Nc2cc(C)nn2-c2nc(C)cc(=O)[nH]2)cc1 | inconclusive: 5.62 µM [activator, single point] | – |
| O=C(CCl)NC1CCCc2ccccc21 (stereo not drawn) | inconclusive: 17.8 µM [activator, single point] | – |
| O=C(CN1C(=O)CCSc2ccccc21)Nc1ccc(C(F)(F)F)cc1 | – | inactive: 0.798% |
| O=C(OCc1nc2ccccc2s1)c1ccc(Br)s1 | active: 11.2 µM | – |
| O=c1cc(-c2ccc(F)cc2)oc2ccccc12 | active: 11.2 µM | – |
| Cc1cc(NC(=O)CCC(=O)N(CC(=O)NC2CCCC2)c2ccccc2)no1 | – | inactive: -1.02% |
| COc1ccc(N2CCN(C(=O)c3cn(C)c(=O)c4c3c3ccccc3n4C)CC2)cc1 | – | inactive: 0.244% |
| COc1ccc(Cc2nc3c4cnn(-c5cccc(F)c5)c4ncn3n2)cc1 | inconclusive: 15.8 µM [activator, single point] | – |
| C/C(=N/NC(=O)c1cccs1)c1ccco1 | active: 12.6 µM | – |
| COc1ccccc1-c1nc(-c2cccc(C)c2)no1 | inconclusive: 14.1 µM [activator, partial curve, poor fit] | – |
| COc1ccccc1NC(=O)N(Cc1cccs1)Cc1cc2cc3c(cc2[nH]c1=O)OCO3 | – | inactive: 4.56% |
| COc1ccc(-n2c(=O)c3ccccc3n(Cc3ccccc3Cl)c2=O)cc1 | – | inactive: -0.065% |
| N#C/C(=C/c1ccncc1)c1nc2ccccc2s1 | inconclusive: 15.8 µM [activator, partial curve, poor fit] | – |
| Cc1ccc([N+](=O)[O-])cc1N=Nc1c(-c2ccc([N+](=O)[O-])cc2)[nH]n(C(N)=S)c1=O | – | inactive: 8.44% |
| O=C(/C=C/c1ccc([N+](=O)[O-])o1)NNC(=O)c1ccc(F)cc1 | inconclusive: 2.51 µM [activator, partial curve, poor fit] | – |
| O=C(Nc1ccccc1C(=O)N/N=C/c1ccco1)c1ccccc1 | active: 3.55 µM | – |
| O=C(CSc1nc(-c2cccs2)nc2cc(=O)[nH]n12)Nc1ccccc1Cl | inconclusive: 7.08 µM [activator, full curve] | – |
| CCCc1nc(NC(C)=O)c(C#N)c(-c2ccco2)c1CC | inconclusive: 14.1 µM [activator, partial curve, poor fit] | – |
| CCOCc1nnc(NC(=O)c2cc(Cl)ccc2OC)s1 | inconclusive: 20 µM [activator, single point] | – |
| Cc1ccc(N2C(=O)CS(=O)C(c3ccccc3)C2=O)cc1C (stereo not drawn) | inconclusive: 15.8 µM [activator, single point] | – |
| O=C(Nc1nc(-c2ccccn2)cs1)c1cc(Cl)ccc1[N+](=O)[O-] | inconclusive: 12.6 µM [activator, single point] | – |

| SMILES | Potency | activation |
| --- | --- | --- |
| Cc1cc(C)c2nc(NC(=O)c3ccc([N+](=O)[O-])o3)sc2c1 | inconclusive: 15.8 µM [activator, partial curve, poor fit] | – |
| O=C(C=Cc1ccco1)c1ccco1 | inconclusive: 25.1 µM [activator, single point] | – |
| CCOc1cccc(-c2nc3cc(C)ccc3o2)c1 | inconclusive: 17.8 µM [activator, single point] | – |
| CCOC(=O)CCS(=O)(=O)c1nc(-c2ccccc2)cc(C(F)(F)F)n1 | inconclusive: 3.55 µM [activator, single point] | – |
| Cc1ccc(C(=O)CCNc2cccc(Br)c2)o1 | inconclusive: 25.1 µM [activator, single point] | – |
| COC(=O)/C=C(\C)N=Nc1c(O)[nH]c2ccccc12 | inconclusive: 14.1 µM [activator, single point] | – |
| COc1cc(OC)c(Nc2c3c(nc4nc(-c5cccs5)nn24)CCCC3)cc1Cl | – | inactive: -0.139% |
| FC(F)(F)c1cc(-c2cccs2)nc2cc(-c3cccs3)nn12 | inconclusive: 2.24 µM [activator, full curve, poor fit] | – |
| COc1ccccc1CNC(=O)COC(=O)c1ccc(C)c(S(=O)(=O)N2CCCCC2)c1 | – | inactive: -2.43% |
| Cc1cccc(C)c1NC(=S)NC(=O)c1cccc(Cl)c1 | inconclusive: 5.62 µM [activator, partial curve] | – |
| Cc1cccc(C)c1OCc1n[nH]c(=S)o1 | – | inactive: 0.608% |
| Cc1nnc(NC(=O)/C=C/c2ccco2)s1 | active: 3.55 µM | – |
| CC(=Nc1ccccc1O)c1sc2ccccc2c1O | inconclusive: 35.5 µM [activator, single point] | – |
| CCOC(=O)c1ccc(N2Cc3ccccc3C2=NC(=O)c2cccc([N+](=O)[O-])c2)cc1 | – | inactive: -0.166% |
| CCc1cnc2c(c1SCC(=O)Nc1cc(Cl)ccc1OC)c(=O)n(C)c(=O)n2C | – | inactive: 0.0268% |
| CCOC(=O)c1c(-c2ccc(OC)cc2)csc1NC(=O)CCN1CCOCC1 | inconclusive: 35.5 µM [activator, single point] | – |
| COC(C[C@H]1O[C@@H]1C(=O)[C@H](C)OCc1ccccc1)OC | inconclusive: 28.2 µM [activator, single point] | – |
| Cc1sc(NC(=S)NC(=O)c2ccco2)c(C(N)=O)c1C | inconclusive: 8.91 µM [activator, partial curve, poor fit] | – |
| O=C1C(Cl)=C(N2CCOCC2)C(=O)N1c1cccc(C(F)(F)F)c1 | inconclusive: 31.6 µM [activator, single point] | – |
| O=[N+]([O-])c1ccc(/C=N/N=C/c2ccc([N+](=O)[O-])o2)o1 | active: 3.98 µM | – |
| O=C(c1c(Cl)nc2sccn12)N(C(=O)c1c(Cl)nc2sccn12)c1ccc(Cl)cn1 | inconclusive: 7.08 µM [activator, partial curve, poor fit] | – |
| Cc1ccc(NC(=S)NNc2ncc(C(F)(F)F)cc2Cl)cc1 | – | inactive: -2.71% |
| CC(=O)c1ccc(-c2ccc(-c3cc(=O)oc4c(C(C)C)ccc(C)c34)cc2)cc1 | – | inactive: 0.851% |
